According to paper PMC4336329 (PLoS ONE, 2015):
Screen size: about 310,000 compounds; about 14,000 (4.5%) showed an effect of 50% or more. Effects have a minus sign here. This is one part of the list.

These molecules were tested against human ether-à-go-go-related gene (hERG) potassium channel (human, UniProt Q12809) (assay: primary screen, population patch clamp on CHO cells stably expressing hERG).
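Note: peak tail current of the secondary pulse compared with the same well before compound.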

Sequence of human ether-à-go-go-related gene (hERG) potassium channel (Q12809 whole entry, looked up): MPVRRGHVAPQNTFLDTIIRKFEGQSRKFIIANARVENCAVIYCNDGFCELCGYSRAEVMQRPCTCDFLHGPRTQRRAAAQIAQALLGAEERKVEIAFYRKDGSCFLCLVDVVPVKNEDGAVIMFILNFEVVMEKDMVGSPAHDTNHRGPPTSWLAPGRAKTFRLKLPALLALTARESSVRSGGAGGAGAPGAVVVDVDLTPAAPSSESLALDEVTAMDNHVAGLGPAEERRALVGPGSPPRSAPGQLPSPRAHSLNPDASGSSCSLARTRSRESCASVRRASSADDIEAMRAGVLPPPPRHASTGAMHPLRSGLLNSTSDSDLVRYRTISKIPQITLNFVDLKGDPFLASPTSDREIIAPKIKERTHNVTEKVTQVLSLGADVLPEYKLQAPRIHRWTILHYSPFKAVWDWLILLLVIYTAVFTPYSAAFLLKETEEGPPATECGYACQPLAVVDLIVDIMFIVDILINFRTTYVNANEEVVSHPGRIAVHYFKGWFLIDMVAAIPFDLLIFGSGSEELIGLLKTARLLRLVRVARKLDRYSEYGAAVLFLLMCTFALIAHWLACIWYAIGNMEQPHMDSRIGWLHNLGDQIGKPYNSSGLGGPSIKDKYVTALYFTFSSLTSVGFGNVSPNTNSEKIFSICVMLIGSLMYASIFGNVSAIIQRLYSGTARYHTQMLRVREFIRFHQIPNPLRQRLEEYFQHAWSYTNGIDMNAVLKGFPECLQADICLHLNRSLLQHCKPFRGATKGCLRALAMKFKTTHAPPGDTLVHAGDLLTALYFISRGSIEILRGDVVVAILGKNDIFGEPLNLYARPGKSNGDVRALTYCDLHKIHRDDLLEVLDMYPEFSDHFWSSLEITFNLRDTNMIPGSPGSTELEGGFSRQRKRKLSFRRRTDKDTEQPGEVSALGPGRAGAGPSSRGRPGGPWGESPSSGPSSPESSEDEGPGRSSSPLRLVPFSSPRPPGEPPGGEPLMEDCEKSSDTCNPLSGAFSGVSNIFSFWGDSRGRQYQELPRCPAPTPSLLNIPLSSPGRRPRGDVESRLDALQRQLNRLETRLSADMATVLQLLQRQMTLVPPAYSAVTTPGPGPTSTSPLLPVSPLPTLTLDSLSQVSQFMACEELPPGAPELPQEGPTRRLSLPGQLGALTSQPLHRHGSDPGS

Compared with `COc1cc(/C=C/C(=O)O)cc(S(=O)(=O)Nc2cc(Cl)c(Cl)cc2Cl)c1OC`, `Cc1ccc2[nH]cc(S(=O)(=O)c3ccc(C)c(C)c3)c(=O)c2c1` is higher in “hERG current change (%, negative = inhibition) at 10uM” value: 9.1% for the first, 16.4% for the second.

Going from `CC(C)C(c1nnnn1CC1CCCO1)N1CCN(C2CCCC2)CC1.Cl` (stereo not drawn) to `O=C(CSc1nnc(CNC(=O)c2cccc(C(F)(F)F)c2)o1)NC1CCCCC1`, the “hERG current change (%, negative = inhibition) at 10uM” value rises from 9.3% to 10.5%.

Compared with `COc1ccc(CNC(=O)CCNC(=O)N2CCn3c2nc2ccccc23)cc1`, `O=C(COC(=O)COc1ccccc1)NCc1ccccc1` is higher in “hERG current change (%, negative = inhibition) at 10uM” value: -14.5% for the first, 9.26% for the second.

Going from `COc1ccc(OCC(=O)O/N=C(\N)c2ccc(OC)cc2)cc1` to `COc1ccc([C@@H]2C[C@@H](c3ccccc3)Oc3c(C)ccc(C(C)C)c32)cc1`, the “hERG current change (%, negative = inhibition) at 10uM” value rises from -4.82% to 13.3%.

Compared with `CSc1ccccc1NC(=O)CN(c1ccccc1)S(=O)(=O)N(C)C`, `O=C(Cc1ccccc1)Nc1ccc(S(=O)(=O)N2CCOCC2)cc1` is higher in “hERG current change (%, negative = inhibition) at 10uM” value: -7.51% for the first, 6.77% for the second.

Compared with `Cc1nn(CC(=O)N2CCN(c3ccccc3)CC2)c(C)c1[N+](=O)[O-]`, `COc1ccc(/C=C2\SC(=S)N(CC(=O)N3CCN(C)CC3)C2=O)cc1` is higher in “hERG current change (%, negative = inhibition) at 10uM” value: -9.49% for the first, 4.95% for the second.

First: CCOC(=O)c1c(C)[nH]c(C(=O)CN(C)CC(=O)Nc2ccccc2Cl)c1C
Second: CC(C)OCCCNC(=O)CN1C(=O)CC(C)(C)S(=O)(=O)c2ccccc21
The “hERG current change (%, negative = inhibition) at 10uM” value of the first is lower: -4.65% for the first, 15.2% for the second.

Going from `CC(=O)C1=C(O)C(=O)N(CCN2CCOCC2)C1c1ccccc1` (stereo not drawn) to `CCc1cc2c(=O)c(-c3cnn(-c4ccccc4)c3)c(C)oc2c(CN2CCCCC2)c1O`, the “hERG current change (%, negative = inhibition) at 10uM” value falls from -7.76% to -28.8%.

First: O=C(c1nc2ccc(Cl)cn2c1CN1CCCC(CO)C1)N1CCc2ccccc2C1 (stereo not drawn)
Second: O=C(NCCc1nc2ccccc2[nH]1)/C(=C/c1ccco1)NC(=O)c1ccco1
The “hERG current change (%, negative = inhibition) at 10uM” value of the first is higher: -5.4% for the first, -17.3% for the second.

Compared with `Cc1cc(C)c2c(-n3cccc3)c(C(=O)NNS(=O)(=O)c3ccc(F)cc3)sc2n1`, `CC(=O)c1ccc(S(=O)(=O)N2CCn3cccc3C2C)cc1` (stereo not drawn) is higher in “hERG current change (%, negative = inhibition) at 10uM” value: -32.1% for the first, 4.91% for the second.

Going from `NC(=O)CSc1nnc(COc2ccccc2)n1CCc1ccccc1` to `CCOc1ccc(C(=O)NCc2ccc3c(c2)OCO3)cc1OCC`, the “hERG current change (%, negative = inhibition) at 10uM” value rises from -34.5% to 6.63%.

Compared with `CCCSc1nc2cc(C)c(C)cc2n1CC(C)O` (stereo not drawn), `Cc1ccc(NC(=O)NNC(=O)c2ccc3c(c2)NC(=O)C(C)(C)O3)cc1` is higher in “hERG current change (%, negative = inhibition) at 10uM” value: -1.84% for the first, 13.9% for the second.
